# Measurements: PubChem BioAssay (NCATS)
# Where “and” joins values, the source holds several entries; their conditions need not be identical. Equal values may be shown once. The inconclusive results got no clear call from the source; some entries with a clear call stand among them for comparison. For part of these data: Potencies of inconclusive entries are left out as doubtful fits. For part of these data: A note “side channel” means that the fit belongs to a control or component signal, not to the main read-out. Calls of active or inactive are those of the source. Unless noted, calls come from the whole dose curve; as a rule, active = well fitted curve in the direction sought with a large enough effect; inconclusive = small, poorly fitted or top-dose-only effect, or another doubt; inactive = no such curve, though single readings can be large; an effect the other way counts as inactive or inconclusive.
# Key:
# [1] = NFAT Signaling Pathway (AID 444; active = well fitted curve in either direction with a large enough effect, not every such curve was filed as active; inconclusive = small, poorly fitted or top-dose-only effect, or another doubt;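 note: carbachol stimulus at about its EC50 of 1 µM final; % is set by controls: 0 for no effect and ±100 for the full control effect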); conditions: Jurkat NFAT-bla M1, carbachol, beta-lactamase ratio, 5 h
# Summary of the method: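 Read-out: CCF4 FRET ratio (460 nm/530 nm) after 1 h RT dye loading, used for %activity and AC50 from titration series. Cells: Jurkat NFAT-β-lactamase/M1 line, treated with compound plus 1 uM carbachol for 5 h, 37 °C.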
# [2] = target: Mitogen-activated protein kinase 10 (Mus musculus) (UniProt Q61831); assay: JNK3 AlphaScreen Assay (AID 530; active = well fitted curve in either direction with a large enough effect, not every such curve was filed as active; inconclusive = small, poorly fitted or top-dose-only effect, or another doubt;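 note: kinase came from lysate of stimulated human HepG2 cells; signal reports phosphorylation of biotinylated GST-cJun 1-79 at Ser73 with 10 µM ATP; potency is the fitted concentration of half-maximal effect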); conditions: JNK3 lysate, c-Jun phosphorylation; activity change, negative = inhibition: at 57.1 µM (top of the series)
# Summary of the method: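 Compound titrations were preincubated 15 minutes at room temperature with substrate, antibody and pre-activated JNK3-containing HepG2 lysate. Reactions were started with 10 uM ATP and stopped with EDTA-containing bead buffer for AlphaScreen detection.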
# [3] = qHTS Assay for Identification of Small Molecule Antagonists for NFkB Signaling Pathway (AID 895; active = well fitted inhibition curve with a large enough effect in the signal ratio, with a control signal flat, not every such curve was filed as active; inconclusive = small, poorly fitted or top-dose-only effect, or effect the other way, or a change in a side signal; the % refers to the signal ratio; note: % is set by controls: 0 for no effect and ±100 for the full control effect); conditions: NFkB beta-lactamase reporter cells, FRET ratio 460/530, stimulated with 10 pM TNF alpha; activity change, negative = inhibition: at 38.3 µM (top of the series)
# Summary of the method: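 Beta-lactamase reporter read-out (460 and 530 nm emission ratio, 405 nm excitation, 2 hrs substrate loading RT) after 5 hr stimulation with 10 pM TNF alpha in compound-treated NFkB-bla ME-180 cells in low-serum medium.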
# [4] = qHTS Assay for Identification of Small Molecule Agonists for Thrombopoietin (TPO) Signaling Pathway (AID 917); note: % is set by controls: 0 for no effect and ±100 for the full control effect
# Summary of the method: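 Murine Ba/F3 cells stably expressing human TPO receptor and a Glycoprotein IIb promoter–luciferase reporter were IL-3-starved overnight, then treated with compounds plus TPO (26 pM final, its EC50) for 24 hrs at 37 C; luminescence was read.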
# [5] = qHTS Assay for Identification of Small Molecule Antagonists for Thrombopoietin (TPO) Signaling Pathway (AID 918); conditions: TPO-dependent cell signaling reporter, antagonist mode; activity change, negative = inhibition: at 38.5 µM (top of the series); note: nearly all actives have a fitted effect of over 60% in size
# Summary of the method: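 Murine Ba/F3 cells expressing human TPO receptor and a Glycoprotein IIb promoter-luciferase reporter, IL-3-starved overnight, treated with compound plus TPO at EC50 (26 pM final). After 24 h at 37 C, luminescence read to detect inhibitors.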
# [6] = qHTS Assay for Lipid Storage Modulators (AID 1519; calls by dose curve; note: % is set by controls: 0 for no effect and ±100 for the full control effect); conditions: Drosophila S3 cells, BODIPY lipid droplet/cell ratio, laser cytometry, cells loaded with oleic acid; activity change, negative = inhibition: at 57.5 µM (top of the series) unless noted
# Summary of the method: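 Cells seeded at 5,000 per well were treated with compounds over a concentration series and loaded with oleic acid (400 uM, as added). Lipid droplet fluorescence (488 nm excitation, 500-530 nm channel) was read by laser-scanning cytometry and normalized to 20 uM Triacsin C.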
# [7] = target: Endonuclease 4 (Escherichia coli (strain K12)) (UniProt P0A6C1); assay: Counterscreen for APE1 Inhibitors: qHTS Validation Assay for Inhibitors of Endonuclease IV (AID 1708); note: potency is the fitted concentration of half-maximal effect
# Summary of the method: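 qHTS concentration-response format; LOPAC1280 tested under APE1-screen conditions. 2 nM enzyme, 15 min compound preincubation at RT, then 50 nM TAMRA/BHQ-2 abasic substrate; kinetic fluorescence read, three reads at 60 s intervals.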
# [8] = target: Ferritin light chain (Equus caballus) (UniProt P02791); assay: qHTS Validation Assay for Identification of Novel General Anesthetics (AID 2323); note: potency is the fitted concentration of half-maximal effect
# Summary of the method: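 Competitive displacement of profluorescent 1-aminoanthracene (1-AMA, 50% saturated solution in PBS) from 10 uM horse-spleen apoferritin. Compounds incubated 10 min at room temperature; fluorescence read at 380 nm excitation/535 nm emission, normalized to free 1-AMA and complex, fitted with four-parameter Hill equation.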
# [9] = target: RecQ-like DNA helicase BLM (Homo sapiens) (UniProt P54132); assay: qHTS Validation Assay for Inhibitors of Bloom's syndrome helicase (BLM) (AID 2364); note: potency is the fitted concentration of half-maximal effect
# Summary of the method: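 Forked 20-bp duplex substrate (200 nM, TAMRA/BHQ-2) plus 2 mM ATP added after 15 min compound preincubation with 50 nM enzyme, pH 8.0, poly(dI-dC) 2.5 ug/ml. Strand separation followed by fluorescence (525/598 nm) over 2 h, normalized to enzyme-free and DMSO controls.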
# [10] = Cytometry Cell-Based qHTS for Inhibitors of the mTORC1 Signaling Pathway in MEF cells (AID 2668); note: potency is the fitted concentration of half-maximal effect
# Summary of the method: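 WT MEFs (Tsc2-/-, p53-/- stably re-expressing WT Tsc2) in DMEM + 10% FBS received compounds 24 hrs after plating, for 24 hrs at 37 degree Celsius. Fixed cells stained with Alexa-488 anti-phospho-rpS6 Ser235/236 and propidium iodide; laser-scanning cytometry read-out.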
# [11] = target: ATP-dependent 6-phosphofructokinase (Trypanosoma brucei brucei) (UniProt O15648); assay: qHTS Validation Assay to Find Inhibitors of T. brucei phosphofructokinase (AID 485368); conditions: activity change, negative = inhibition: at 57.5 µM (top of the series); note: potency is the fitted concentration of half-maximal effect
# Summary of the method: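 Activity was normalized between 1x (1.25 nM) PFK wells as no inhibition and enzyme-free wells as full inhibition, from luminescence after ADP-Glo detection of ADP made from 0.5 mM F6P and 0.1 mM ATP over 45 min.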
# [12] = target: Chromobox protein homolog 1 (Homo sapiens) (UniProt P83916); assay: qHTS Validation Assay for Inhibitors of HP1-beta Chromodomain Interactions with Methylated Histone Tails (AID 488953);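 note: loss of AlphaScreen luminescence from HP1-beta binding biotinylated H3K9me3 peptide; % is set by controls: 0 for no effect and ±100 for the full control effect; nearly all actives have a fitted effect of over 50% in size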
# Summary of the method: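 HP1-beta (50 nM) preformed 30 min with biotinylated H3(1-18)K9me3 peptide (50 nM) in PBS pH 7.4, 0.01% Tween-20. Compounds added for 30 min at room temperature. Complex disruption read by AlphaScreen with streptavidin donor/nickel chelate acceptor beads (10 ug/mL each).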
# [13] = target: ATPase family AAA domain-containing protein 5 (Homo sapiens) (UniProt Q96QE3); assay: Validation screen for small molecules that inhibit ELG1-dependent DNA repair in human embryonic kidney (HEK293T) cells expressing luciferase-tagged ELG1 (AID 493107); conditions: HEK293T ELG1-luciferase level, luminescence, 5-fluorouridine co-treatment, 16 h; activity change, negative = decrease: at 46.1 µM (top of the series); note: potency is the fitted concentration of half-maximal effect; nearly all actives have a fitted effect of over 70% in size
# Summary of the method: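 HEK293T cells expressing luciferase-tagged ELG1, 2,000 per well, treated with 5-fluorouridine plus compound for 16 h at 37 C. ONE-Glo luminescence after 30 min at room temperature reports ELG1 reporter level.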
# [14] = target: Ubiquitin carboxyl-terminal hydrolase 1 (Homo sapiens) (UniProt O94782); assay: Inhibitors of USP1/UAF1: Pilot qHTS (AID 504865); note: potency is the fitted concentration of half-maximal effect;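 note: rhodamine fluorescence freed from ubiquitin-rhodamine substrate followed over time; nearly all actives have a fitted effect of over 35% in size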
# Summary of the method: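 USP1/UAF1 complex (1nM) preincubated with compound 15 min at room temperature, then Ub-Rho substrate (150nM final) added. Fluorescence read kinetically at 480/540 nm, 6 reads every 60 seconds. Buffer: 50mM HEPES pH 7.8, 0.5mM EDTA, 0.1 mg/ml BSA, 1mM TCEP, 0.01% Tween-20.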
# [15] = target: Estrogen receptor (Homo sapiens) (UniProt P03372); assay: qHTS assay for small molecule antagonists of estrogen receptor alpha signaling (AID 588513; active = well fitted curve in the direction sought with a large enough effect in the signal ratio, with a control signal flat, not every such curve was filed as active; inconclusive = small, poorly fitted or top-dose-only effect, or effect the other way, or a change in a side signal; inactive = no such curve, though single readings can be large or run the other way; the % refers to the signal ratio; note: % is set by controls: 0 for no effect and ±100 for the full control effect); conditions: ER-alpha-UAS-bla HEK293, beta-lactamase ratio, antagonist mode; activity, negative = inhibition: at 76.9 µM (top of the series) unless noted
# Summary of the method: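 ER-alpha-UAS-bla GripTite HEK 293 cells in medium with 2% charcoal/dextran-treated FBS were preincubated 4 h at 37 C, dosed with compound (1:2 titration), stimulated with 0.5nM 17-beta-estradiol for 18 h, then read by CCF4 beta-lactamase fluorescence.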
# [16] = target: Peroxisome proliferator-activated receptor delta (Homo sapiens) (UniProt Q03181); assay: qHTS assay for small molecule agonists of peroxisome proliferator-activated receptor delta signaling (AID 588534; calls by dose curve; note: potency is the fitted concentration of half-maximal effect); conditions: HEK293T PPARdelta-UAS-bla, beta-lactamase ratio, 18 h; activation: at 76.7 µM (top of the series)
# Summary of the method: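 Cells carrying a PPAR-delta beta-lactamase reporter were treated with compounds for 18 h at 37 °C in agonist mode. CCF4 fluorescence was read after 2 h; EC50 and efficacy from Hill fits.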
# [17] = target: Retinoic acid receptor RXR-alpha (Homo sapiens) (UniProt P19793); assay: qHTS assay for small molecule agonists of retinoid X receptor alpha signaling (AID 588544; calls by dose curve;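 note: 0% = DMSO basal wells and 100% = reference agonist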); conditions: HEK293T RXRa-UAS-bla, beta-lactamase reporter, 18 h; activation: at 76.7 µM (top of the series)
# Tags give direction and shape of the fitted curve or compound fluorescence and quenching.
# Sequence of UniProt O94782 (O94782 whole entry, looked up): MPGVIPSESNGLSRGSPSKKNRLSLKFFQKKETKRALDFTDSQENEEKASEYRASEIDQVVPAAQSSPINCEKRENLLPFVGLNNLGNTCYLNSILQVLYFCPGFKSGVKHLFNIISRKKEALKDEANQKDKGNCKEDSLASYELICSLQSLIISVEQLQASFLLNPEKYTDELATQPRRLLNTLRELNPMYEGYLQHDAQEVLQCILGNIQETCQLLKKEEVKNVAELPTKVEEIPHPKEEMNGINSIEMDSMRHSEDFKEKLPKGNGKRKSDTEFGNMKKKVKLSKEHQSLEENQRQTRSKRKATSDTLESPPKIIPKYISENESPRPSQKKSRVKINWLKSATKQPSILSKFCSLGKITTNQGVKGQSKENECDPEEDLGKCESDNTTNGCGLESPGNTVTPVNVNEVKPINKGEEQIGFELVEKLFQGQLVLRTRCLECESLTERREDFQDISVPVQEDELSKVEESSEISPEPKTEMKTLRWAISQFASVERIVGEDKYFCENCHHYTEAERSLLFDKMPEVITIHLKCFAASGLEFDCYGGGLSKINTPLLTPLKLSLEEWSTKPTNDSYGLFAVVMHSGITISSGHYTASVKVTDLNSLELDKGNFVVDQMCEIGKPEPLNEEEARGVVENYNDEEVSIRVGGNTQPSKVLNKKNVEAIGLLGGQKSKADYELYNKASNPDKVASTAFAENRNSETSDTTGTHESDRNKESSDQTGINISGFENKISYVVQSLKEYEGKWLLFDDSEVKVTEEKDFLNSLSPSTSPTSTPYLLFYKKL
# Sequence of UniProt P19793 (P19793 whole entry, looked up): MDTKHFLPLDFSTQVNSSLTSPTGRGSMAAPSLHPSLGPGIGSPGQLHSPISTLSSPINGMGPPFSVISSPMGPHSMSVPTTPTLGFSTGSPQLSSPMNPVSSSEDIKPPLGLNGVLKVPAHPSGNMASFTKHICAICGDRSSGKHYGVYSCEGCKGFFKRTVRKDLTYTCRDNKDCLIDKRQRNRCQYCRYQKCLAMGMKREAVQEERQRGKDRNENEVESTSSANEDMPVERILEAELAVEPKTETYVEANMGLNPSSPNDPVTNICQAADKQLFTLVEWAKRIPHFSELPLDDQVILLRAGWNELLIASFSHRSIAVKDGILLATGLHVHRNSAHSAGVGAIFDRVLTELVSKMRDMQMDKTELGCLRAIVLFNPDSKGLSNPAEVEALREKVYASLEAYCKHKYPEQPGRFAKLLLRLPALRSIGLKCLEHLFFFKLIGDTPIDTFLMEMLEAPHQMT
# Sequence of UniProt P02791 (P02791 whole entry, looked up): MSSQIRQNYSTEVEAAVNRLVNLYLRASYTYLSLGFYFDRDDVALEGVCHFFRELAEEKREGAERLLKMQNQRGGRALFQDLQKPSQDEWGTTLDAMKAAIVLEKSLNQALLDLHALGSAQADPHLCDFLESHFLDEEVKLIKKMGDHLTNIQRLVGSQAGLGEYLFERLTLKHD
# Sequence of UniProt Q96QE3 (Q96QE3 whole entry, looked up, the tested form may be a part): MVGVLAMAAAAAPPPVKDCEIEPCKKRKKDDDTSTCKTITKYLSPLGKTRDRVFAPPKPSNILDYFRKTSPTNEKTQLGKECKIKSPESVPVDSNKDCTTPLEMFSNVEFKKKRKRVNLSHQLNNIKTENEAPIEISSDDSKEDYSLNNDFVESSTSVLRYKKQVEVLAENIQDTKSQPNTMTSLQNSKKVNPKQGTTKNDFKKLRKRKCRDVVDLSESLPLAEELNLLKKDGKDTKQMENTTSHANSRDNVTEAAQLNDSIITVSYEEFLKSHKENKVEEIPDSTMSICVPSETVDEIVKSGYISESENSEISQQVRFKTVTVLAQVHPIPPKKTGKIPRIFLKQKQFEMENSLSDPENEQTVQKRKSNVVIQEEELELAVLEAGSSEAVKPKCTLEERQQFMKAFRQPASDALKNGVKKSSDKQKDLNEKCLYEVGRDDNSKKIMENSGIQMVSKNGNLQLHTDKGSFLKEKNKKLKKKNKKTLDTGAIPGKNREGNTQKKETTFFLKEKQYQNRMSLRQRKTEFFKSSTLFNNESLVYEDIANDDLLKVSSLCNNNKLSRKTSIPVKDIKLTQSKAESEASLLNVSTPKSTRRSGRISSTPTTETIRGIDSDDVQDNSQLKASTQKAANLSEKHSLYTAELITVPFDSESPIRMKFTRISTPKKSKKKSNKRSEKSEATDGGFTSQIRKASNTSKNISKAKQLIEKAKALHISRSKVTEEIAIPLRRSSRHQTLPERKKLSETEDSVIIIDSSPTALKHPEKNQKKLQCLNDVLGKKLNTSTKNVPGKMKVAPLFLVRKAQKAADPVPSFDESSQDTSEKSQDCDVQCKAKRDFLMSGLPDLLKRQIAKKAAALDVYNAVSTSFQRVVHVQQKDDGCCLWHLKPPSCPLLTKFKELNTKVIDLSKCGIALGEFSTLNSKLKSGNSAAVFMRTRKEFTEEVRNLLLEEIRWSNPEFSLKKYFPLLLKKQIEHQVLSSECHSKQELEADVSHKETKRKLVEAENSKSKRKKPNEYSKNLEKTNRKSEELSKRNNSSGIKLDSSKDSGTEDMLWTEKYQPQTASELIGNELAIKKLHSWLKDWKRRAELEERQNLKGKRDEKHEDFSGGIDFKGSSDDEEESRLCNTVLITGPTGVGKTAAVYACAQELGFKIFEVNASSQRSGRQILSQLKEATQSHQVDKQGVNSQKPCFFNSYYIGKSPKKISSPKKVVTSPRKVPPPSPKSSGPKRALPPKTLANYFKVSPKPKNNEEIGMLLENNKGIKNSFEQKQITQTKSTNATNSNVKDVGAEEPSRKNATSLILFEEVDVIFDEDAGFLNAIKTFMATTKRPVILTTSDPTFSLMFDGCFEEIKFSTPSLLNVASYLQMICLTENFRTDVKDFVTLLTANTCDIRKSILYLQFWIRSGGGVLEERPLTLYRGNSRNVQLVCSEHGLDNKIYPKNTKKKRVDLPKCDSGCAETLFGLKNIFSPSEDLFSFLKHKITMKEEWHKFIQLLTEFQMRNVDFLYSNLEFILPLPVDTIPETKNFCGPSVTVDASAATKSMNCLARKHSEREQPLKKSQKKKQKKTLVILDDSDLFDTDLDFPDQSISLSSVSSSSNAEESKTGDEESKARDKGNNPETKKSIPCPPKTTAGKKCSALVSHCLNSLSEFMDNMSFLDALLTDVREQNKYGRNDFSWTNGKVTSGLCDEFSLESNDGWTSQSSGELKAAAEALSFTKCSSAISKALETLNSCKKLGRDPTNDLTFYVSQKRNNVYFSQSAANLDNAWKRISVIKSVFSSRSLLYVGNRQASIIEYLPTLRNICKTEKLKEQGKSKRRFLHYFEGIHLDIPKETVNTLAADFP
# Sequence of UniProt P54132 (P54132 whole entry, looked up): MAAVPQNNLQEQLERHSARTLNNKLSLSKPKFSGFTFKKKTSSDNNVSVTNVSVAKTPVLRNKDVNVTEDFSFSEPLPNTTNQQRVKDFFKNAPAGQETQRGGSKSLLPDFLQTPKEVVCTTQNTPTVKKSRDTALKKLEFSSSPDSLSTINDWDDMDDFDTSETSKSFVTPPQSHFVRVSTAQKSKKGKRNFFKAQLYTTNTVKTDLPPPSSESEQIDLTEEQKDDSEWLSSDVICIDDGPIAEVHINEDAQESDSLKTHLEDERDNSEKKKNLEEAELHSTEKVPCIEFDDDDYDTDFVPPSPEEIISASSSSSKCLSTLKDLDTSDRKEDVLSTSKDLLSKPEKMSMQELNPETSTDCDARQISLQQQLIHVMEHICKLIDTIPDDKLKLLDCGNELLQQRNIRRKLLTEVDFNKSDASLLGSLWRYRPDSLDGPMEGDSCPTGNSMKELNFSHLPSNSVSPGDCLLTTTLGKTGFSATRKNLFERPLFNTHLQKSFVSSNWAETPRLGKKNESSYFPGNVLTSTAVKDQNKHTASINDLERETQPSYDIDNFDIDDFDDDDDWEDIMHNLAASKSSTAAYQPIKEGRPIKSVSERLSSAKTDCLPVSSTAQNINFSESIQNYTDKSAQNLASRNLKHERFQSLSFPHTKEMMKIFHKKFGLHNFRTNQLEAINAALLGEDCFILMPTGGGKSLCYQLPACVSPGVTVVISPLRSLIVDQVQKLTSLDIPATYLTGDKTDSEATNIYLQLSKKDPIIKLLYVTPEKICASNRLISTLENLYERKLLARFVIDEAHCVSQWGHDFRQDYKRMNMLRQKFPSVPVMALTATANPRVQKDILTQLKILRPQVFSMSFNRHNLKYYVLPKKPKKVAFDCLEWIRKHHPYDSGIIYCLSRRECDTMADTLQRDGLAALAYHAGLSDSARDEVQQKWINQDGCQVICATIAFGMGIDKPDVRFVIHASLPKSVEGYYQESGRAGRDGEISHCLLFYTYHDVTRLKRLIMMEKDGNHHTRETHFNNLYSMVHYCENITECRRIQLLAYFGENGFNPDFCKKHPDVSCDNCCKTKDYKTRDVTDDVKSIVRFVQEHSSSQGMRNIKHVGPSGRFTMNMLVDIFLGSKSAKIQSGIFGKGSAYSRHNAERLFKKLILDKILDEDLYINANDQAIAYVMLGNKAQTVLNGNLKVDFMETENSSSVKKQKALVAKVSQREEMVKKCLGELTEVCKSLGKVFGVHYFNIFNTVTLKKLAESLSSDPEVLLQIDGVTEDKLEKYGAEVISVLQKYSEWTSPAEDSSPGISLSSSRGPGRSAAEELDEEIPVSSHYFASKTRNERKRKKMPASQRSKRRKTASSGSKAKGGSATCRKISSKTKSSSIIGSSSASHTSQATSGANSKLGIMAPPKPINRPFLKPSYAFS
# Sequence of UniProt P83916 (P83916 whole entry, looked up): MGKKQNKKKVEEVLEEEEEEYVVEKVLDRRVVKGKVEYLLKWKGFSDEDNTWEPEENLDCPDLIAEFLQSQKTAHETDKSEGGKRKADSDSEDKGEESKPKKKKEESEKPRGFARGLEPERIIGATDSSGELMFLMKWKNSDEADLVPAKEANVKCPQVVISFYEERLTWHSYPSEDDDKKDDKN
smiles,measurement,setting,value
CC(C)OC(=O)C(C)(C)Oc1ccc(C(=O)c2ccc(Cl)cc2)cc1,"activity change, negative = inhibition",[1]; at 17.2 µM (top of the series),inconclusive: -41% [inhibitor] and inconclusive: -46.4% [inhibitor]
same,"activity change, negative = inhibition",[1]; at 38 µM (top of the series),inconclusive: -49.9% [inhibitor]
same,Potency,[2],"inconclusive [activator, partial curve]"
same,"activity change, negative = inhibition",[3],inconclusive: -5.48%
same,Potency,[4],inactive
same,"activity change, negative = inhibition",[5],inconclusive: -17.9% [phenotype inactive]
same,"activity change, negative = inhibition",[6],inconclusive: 15.8% and inconclusive: -0.195%
same,Potency,[7],"inconclusive [inhibitor, partial curve, poor fit]"
same,Potency,[8],"inconclusive [inhibitor, partial curve]"
same,Potency,[9],"inconclusive [inhibitor, partial curve]"
same,Potency,[10],"inconclusive [falling, single point]"
same,Potency,[11],"inconclusive [falling, single point]"
same,Potency,[12],inactive
same,Potency,[13],"inconclusive [activator, partial curve, poor fit]"
same,Potency,[14],"inconclusive [inhibitor, partial curve] and inactive"
same,"activity, negative = inhibition",[15],inconclusive: -49.1%
same,Potency,[16],"inconclusive [side channel, falling, full curve, poor fit]"
same,activation,[17],inconclusive: -46.6%
